# Assay results from PubChem BioAssay AID1347416 (National Center for Advancing Translational Sciences (NCATS), 2020).
# Out of some 4,100 compounds screened, about 1,600 (39%) were called active. This list was built around the results that the source calls inconclusive (neither active nor inactive); the mix of calls is not that of the screen. Calls follow the shape of the dose curve; as a rule, active = well fitted inhibition curve with a large enough effect; inconclusive = small, poorly fitted or top-dose-only effect; inactive = no such curve, though single readings can be large or run the other way. Where the call is inconclusive, the potency comes from a doubtful curve fit.
# Test: qHTS Validation assay for Inhibitors of Plasmodium falciparum Dd2 growth in vitro; also: nearly all actives have a fitted effect of over 70% in size
# Details: P. falciparum Dd2 in RBCs, SYBR Green growth, 72 h; series mostly up to 28.7 µM
# Procedure, shortened: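 P. falciparum Dd2-infected red blood cells (2.5% hematocrit, 0.3% parasitemia) grown 72 h at 37 °C under 5% O2 with compounds in a titration, 29 uM to 0.5 nM final. Growth read as SYBR Green-1 fluorescence after ~16 h lysis; artesunate 300 nM as positive control.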
# Potency is read from the fitted curve at half-maximal effect; tags tell the direction and shape of the fitted curve.
row,SMILES,Potency
1,COc1cc(NC(=O)CSc2nc3nc(C)c(Cc4ccc(C)cc4)c(C)n3n2)cc(OC)c1,inactive
2,COc1cccc(-c2nc(-c3c(C)noc3C)cc3c2cc(C)n3CCN(C)C)c1,active: 17.2 µM
3,Cc1ccc(Cn2nnc(C(=O)Nc3ccc(F)c(F)c3)c2N)cc1,inactive
4,O=C(CCCn1c(=O)c2cccn2c2ccccc21)Nc1cc(C(F)(F)F)ccc1Cl,"inconclusive: 21.1 µM [inhibitor, single point]"
5,CC1CCN(Cc2c(O)ccc3c(=O)c(Oc4ccccc4Cl)c(C(F)(F)F)oc23)CC1,active: 1.33 µM
6,Cc1ccc(C)c(-n2c(-c3ccc(Br)cc3)csc2=NC(=O)c2ccccc2F)c1,active: 4.73 µM
7,CCOC(=O)c1c(NC(=O)c2cc(C(C)C)on2)sc(C(C)=O)c1C,"inconclusive: 21.1 µM [inhibitor, single point]"
8,CCOC(=O)c1c(CSC(=N)N)n(-c2ccc(Br)cc2)c2cc(Br)c(OC(C)=O)cc12,"inconclusive: 2.11 µM [inhibitor, partial curve, poor fit]"
9,O=C1NCCCCCN(C(=O)COc2ccccc2)[C@@H]2C[C@@H](C(=O)N3CCc4ccccc4C3)C[C@H]12,"inconclusive: 21.1 µM [inhibitor, single point]"
10,Cc1ccccc1Nc1c(-c2cc(Br)ccc2F)nc2ccccn12,"inconclusive: 15 µM [inhibitor, partial curve, poor fit]"
11,COC(=O)[C@@H]1Cc2ncn(Cc3ccc(OC)cc3)c2CN1S(=O)(=O)Cc1ccccc1,"inconclusive: 15 µM [inhibitor, partial curve]"
12,O=C(NCCc1c[nH]c2ccccc12)c1cncc(Br)c1,inactive
13,N#Cc1ccccc1CN1CCC([C@@H]2CNC[C@H]2CO)CC1,inactive
14,CCN1C(=O)CSC1=Nc1ccc(C(=O)O)cc1,"inconclusive: 7.5 µM [inhibitor, single point]"
15,O=C(Cc1ccccc1)N1CCCC2(CC(c3ccccn3)=NO2)C1 (centres undefined),inactive
16,Cc1ccc2c(c1)-c1c(ssc1=S)C(C)(C)N2C(=O)c1ccco1,"inconclusive: 2.11 µM [inhibitor, full curve, poor fit]"
17,Cc1cccc(NC(=O)c2cc(S(=O)(=O)N(C)c3ccc(F)cc3)ccc2Cl)n1,"inconclusive: 23.7 µM [inhibitor, single point]"
18,CN1c2cc(C(=O)Nc3ccc(S(N)(=O)=O)cc3)ccc2C(=O)N2CCCCC21 (centres undefined),inactive
19,CCOC(=O)c1cn(CC)c2c(ccc3ccccc32)c1=O,inactive
20,CCOc1ccc(C(=O)NC2CCN(c3cc(-c4ccccc4)[nH]n3)CC2)cc1OCC,"inconclusive: 21.1 µM [inhibitor, single point]"
21,Cc1cn2nc(C(=O)Nc3ccc(F)cc3)cc2c(N(C)Cc2ccccc2)n1,"inconclusive: 21.1 µM [inhibitor, single point]"
22,O=C(Nc1ccc(Cl)cc1)c1nc2c(o1)CCN(Cc1cccc(O)c1)CC2,"inconclusive: 34.4 µM [inhibitor, single point]"
23,COc1ccccc1-c1[nH]nc2ncc(-c3cnn(C)c3)nc12,"inconclusive: 17.2 µM [inhibitor, partial curve]"

row,SMILES,Potency
1,Cc1ccc(C(=O)NN2C(=O)C3C4C=CC(C4)[C@@H]3C2=O)cc1 (some centres undefined),inactive
2,COc1ccc(-c2ccc3c(n2)CN(Cc2csc(C)n2)C(=O)CO3)cc1F,inactive
3,COCCc1nn2c(=O)cc(COC(=O)C(c3ccccc3)c3ccccc3)nc2s1,active: 2.66 µM
4,CC(C)OC(=O)c1cccc(NC(=O)Cn2nnc3sc4c(c3c2=O)CCCC4)c1,inactive
5,CCCn1cc(S(=O)(=O)c2ccc(C)cc2)c(=O)c2cc(F)c(N3CCCC3)cc21,"inconclusive: 16.8 µM [inhibitor, partial curve, poor fit]"
6,CC(C)(C)c1cnc([C@@H]2COCCN2Cc2ccccc2O)[nH]1,active: 13.7 µM
7,COC(=O)[C@@H]1Cc2ncn(Cc3ccc(OC)cc3)c2CN1S(C)(=O)=O,"inconclusive: 19.3 µM [inhibitor, partial curve]"
8,CCCCC(=O)NC(c1cccc([N+](=O)[O-])c1)c1c(OC(C)=O)ccc2ccccc12 (centres undefined),active: 3.76 µM
9,COc1cc2cc(CNc3ccccc3)c(=O)n(CC(=O)Nc3cccc(Cl)c3C)c2cc1OC,"inconclusive: 15 µM [inhibitor, single point]"
10,O=C(c1ccc2cc[nH]c2c1)N1CCC(n2cc(-c3nc(-c4ccccc4)no3)nn2)CC1,"inconclusive: 16.8 µM [inhibitor, single point]"
11,COc1ccc2nc(/N=C(\N)NC(=O)Nc3ccccc3)nc(C)c2c1,"inconclusive: 18.8 µM [inhibitor, single point]"
12,N/C(Cc1cccc2ccccc12)=N\OC(=O)Cc1cccs1,"inconclusive: 16.8 µM [inhibitor, single point]"
13,CCc1ccc(OCC(=O)N(Cc2ccc(C(C)C)cc2)C2CCS(=O)(=O)C2)cc1 (centres undefined),inactive
14,CCOC(=O)c1cccc(NC(=O)N2CC[C@@H](CC(=O)NCc3ccccc3OC)[C@@H](CC)C2)c1,"inconclusive: 21.1 µM [inhibitor, single point]"
15,Cc1ccc(Cn2c(C3CCN(C(=O)c4ccc(C(F)(F)F)cc4)CC3)n[nH]c2=O)cc1,inactive
16,Cc1ccc(NC(=O)c2ccc(CSc3ccccn3)cc2)c(O)c1,"inconclusive: 21.1 µM [inhibitor, single point]"
17,Cc1cc(Nc2ccc(Cl)cc2)nc(N)n1,"inconclusive: 23.7 µM [inhibitor, single point]"
18,CCOc1ccc(NC(=O)CCC2CCN(c3cc(NC4CC4)ncn3)CC2)cc1,"inconclusive: 21.1 µM [inhibitor, single point]"
19,CCN1C(=O)C2(CCN(S(=O)(=O)c3cc(F)ccc3C)CC2)c2ccccc21,"inconclusive: 8.41 µM [inhibitor, partial curve, poor fit]"
20,O=C(NC1CC1)C1CCN(S(=O)(=O)c2ccc(Cl)cc2)CC1,"inconclusive: 13.3 µM [inhibitor, partial curve]"
21,CCc1ccc2nc3nc(C)cc(C)c3c(N)c2c1,"inconclusive: 15 µM [inhibitor, single point]"
22,O=C1NCCCCCN(C(=O)CC2CCCC2)[C@@H]2C[C@@H](C(=O)N3CCc4ccccc4C3)C[C@H]12,inactive
23,COc1ccc(C(=O)Nc2ccc(-c3nnc4n3CCCC4)cc2)cc1F,"inconclusive: 23.7 µM [inhibitor, single point]"

row,SMILES,Potency
1,CCc1cccc(NC(=O)C(Cc2ccccc2)NS(=O)(=O)c2ccc3c(c2)oc(=O)n3C)c1 (centres undefined),inactive
2,CCCCCCCNC(=O)C1(CC2CC(c3ccc(Cl)cc3)=NO2)CCN(C(=O)c2cc(OCC)c(OCC)c(OCC)c2)CC1 (centres undefined),active: 3.35 µM
3,O=S(=O)(Nc1cc2nc3ccccc3nc2n1Cc1ccccc1)c1ccc(Cl)cc1,active: 1.19 µM
4,CCCOc1ccc(C(=O)Nc2ccc(-c3cc4ccccc4oc3=O)c(C)c2)cc1,"inconclusive: 21.1 µM [inhibitor, single point]"
5,CN(C(=O)c1ccc2c(c1)N(Cc1ccc(F)cc1)C(=O)c1ccccc1S2(=O)=O)C1CCCCC1,inactive
6,N#Cc1cccc(C(=O)NC2CCN(c3cc(-c4cccs4)[nH]n3)CC2)c1,"inconclusive: 15 µM [inhibitor, single point]"
7,COCc1nncn1C1CCN(C(=O)c2ccc(C)c(C)c2)CC1,inactive
8,COc1ccc(N2CCN(C(=O)C(C)n3c(=O)cc(C(F)(F)F)c4c(C)nn(C)c43)CC2)cc1 (centres undefined),"inconclusive: 21.1 µM [inhibitor, single point]"
9,COc1ccccc1CNS(=O)(=O)c1ccc2c(c1)CC(C)N2C(=O)C1CCC1 (centres undefined),"inconclusive: 23.7 µM [inhibitor, single point]"
10,OC(CNCCc1ccccc1)COc1ccc(OCC(O)CNCCc2ccccc2)cc1 (centres undefined),"inconclusive: 4.22 µM [inhibitor, partial curve, poor fit]"
11,Cc1ccc2oc(=O)n(CCOc3ccccc3C)c2c1,active: 4.73 µM
12,COc1ccc(-c2cc(N3CCC(NC(=O)c4cccs4)CC3)n[nH]2)cc1,"inconclusive: 23.7 µM [inhibitor, single point]"
13,O=C(c1ccc2ncccc2c1)N1CCc2c(nc3cc[nH]n3c2=O)C1,inactive
14,COc1ccc(-c2cnc3[nH]cc(CC(=O)Nc4ccc(F)c(Cl)c4)c3c2)cc1,"inconclusive: 34.4 µM [inhibitor, single point]"
15,O=C(Nc1ccncc1)Nc1ccc(Cl)cc1,active: 10.6 µM
16,CC(=O)c1ccc(N2CCN(c3nc4c(S(=O)(=O)c5ccccc5)nnn4c4ccc(Cl)cc34)CC2)cc1,"inconclusive: 3.35 µM [inhibitor, full curve]"
17,O=C1Cc2c(-c3ccc(Oc4ccccc4)cc3)n[nH]c2CN1Cc1ccccc1F,inactive
18,CCOC(=O)c1nnn(-c2nonc2N)c1-c1ccc(Br)cc1,active: 2.66 µM
19,Fc1ccc2c(c1)nc1n2[C@@H](CNCc2c[nH]c3ccccc23)COC1,"inconclusive: 13.7 µM [inhibitor, partial curve, poor fit]"
20,Cc1cc(NC(=O)CSc2nc3c(c(=O)n2Cc2ccccc2)SC(C)C3)no1 (centres undefined),inactive
21,Cc1ccc(S(=O)(=O)Nc2ccc(-c3cn4ccc(C)cc4n3)cc2)cc1,active: 6.68 µM
22,CCC(C)NC(=O)c1cc2c(Cl)nc3ccc(C)cc3c2s1 (centres undefined),inactive
23,Cc1cc(Nc2ccccc2)nc(NCc2ccccc2)n1,"inconclusive: 0.596 µM [inhibitor, full curve, poor fit]"
